{"source": "PubChem BioAssay AID1865", "about": "(National Center for Advancing Translational Sciences (NCATS), 2009)", "note": "In all, about 280,000 compounds went through this assay and about 540 (0.19%) were called active. The inconclusive results got no clear call from the source; some entries with a clear call stand among them for comparison. Calls come from the whole dose curve; as a rule, active = well fitted activation curve with a large enough effect; inconclusive = small, poorly fitted or top-dose-only effect; inactive = flat fitted curve, though single readings scatter. Potencies beside an inconclusive call are fits to weak or partial responses and may not hold up. Potency is the fitted concentration of half-maximal effect; tags give direction and shape of the fitted curve.", "data": [{"assay": "Quantitative High-Throughput Screen for Regulators of Epigenetic Control; note: nearly all actives have a fitted effect of over 60% in size", "conditions": "murine LDR cells, GFP reporter derepression, 30 h; series mostly up to 53.9 µM", "procedure,_shortened": "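GFP-positive cell count by laser-scanning cytometry (objects 20–120 um) after 30 h, 37 C compound exposure of murine LDR cells; reporter is CMV-GFP integrated at a silenced locus, inducible by HDAC or DNMT inhibitors.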", "values": [{"smiles": "Cc1cc(OCC(F)(F)C(F)(F)C(F)(F)C(F)F)nc(N)n1", "Potency": "inconclusive: 35.5 µM [activator, single point]"}, {"smiles": "COc1cccc(/C=N/Nc2cc(-n3nc(C)cc3-c3ccccc3)ncn2)c1O", "Potency": "inconclusive: 31.6 µM [activator, single point]"}, {"smiles": "CCOC(=O)c1c(Nc2ccc(Cl)cc2)sc(/C=C2\\C=Nc3ccccc32)c1O", "Potency": "active: 7.08 µM"}, {"smiles": "O=C(c1ccccc1)[C@@H]1[C@@H]2C(=O)N(c3ccc(F)cc3)C(=O)[C@@H]2C2CCCN21", "note": "(some centres undefined)", "Potency": "inconclusive: 31.6 µM [activator, single point]"}, {"smiles": "Cc1ccc(CNC(=O)C2CCC(CNc3nc(=S)[nH]c4ccccc34)CC2)cc1", "note": "(centres undefined)", "Potency": "inconclusive: 25.1 µM [activator, single point]"}, {"smiles": "COC(=O)CCc1sc(NC2CCCCC2)nc1-c1ccc(OC)cc1", "Potency": "inconclusive: 31.6 µM [activator, single point]"}, {"smiles": "CCN(C(=O)COC(=O)c1cc(C)n(-c2ccc(F)cc2)c1C)C1CCS(=O)(=O)C1", "note": "(centres undefined)", "Potency": "inconclusive: 35.5 µM [activator, single point]"}, {"smiles": "CC1=CN2C(=N)/C(=C/c3ccc(Sc4ccc(C)cc4)o3)C(=O)N=C2S1", "Potency": "inconclusive: 25.1 µM [activator, single point]"}, {"smiles": "O=C(O)c1cc(-c2ccco2)nc2ccc(Br)cc12", "Potency": "inactive"}, {"smiles": "CC1(OC(=O)CCc2ccccc2)C(=O)C=C2C=C(c3ccc(C#N)cc3)N(CCc3ccccn3)C=C2C1=O", "note": "(centres undefined)", "Potency": "inconclusive: 15.8 µM [activator, single point]"}, {"smiles": "COc1ccc(NC(=O)c2sc3nc(-c4cccnc4)ccc3c2N)cc1", "Potency": "inconclusive: 25.1 µM [activator, single point]"}, {"smiles": "N#Cc1c(-c2ccc3c(c2)OCO3)ccn2nc(-c3cccc(C(F)(F)F)c3)nc12", "Potency": "inconclusive: 3.16 µM [activator, full curve]"}, {"smiles": "CCOc1ccc(NC(=O)c2cc3c(s2)-c2ccccc2OC3)cc1", "Potency": "inactive"}, {"smiles": "COc1ccc2cc3c(N)c(C(=O)NCc4ccco4)sc3nc2c1", "Potency": "inconclusive: 35.5 µM [activator, single point]"}, {"smiles": "O=C(NCc1ccc(Cl)cc1)c1ccc2c(c1)NC(=O)C(CS(=O)(=O)Cc1ccccc1Cl)N2", "note": "(centres undefined)", "Potency": "inconclusive: 35.5 µM [activator, single point]"}, {"smiles": "O=C(c1ccc(Cl)s1)N1CCN(c2nc3ccccc3s2)CC1", "Potency": "inactive"}, {"smiles": "O=[N+]([O-])c1ccc(N/N=C/c2sc(N3CCOCC3)nc2-c2ccccc2)c(S(=O)(=O)Nc2ccc(Cl)cc2)c1", "Potency": "inconclusive: 3.16 µM [activator, partial curve]"}, {"smiles": "COc1ccc(/C(O)=C/c2nc3ccccc3n(-c3ccccc3)c2=O)cc1", "Potency": "active: 25.1 µM"}, {"smiles": "Cc1ccc2nc(/C(C#N)=C\\c3ccc([N+](=O)[O-])o3)[nH]c2c1", "Potency": "active: 1 µM"}, {"smiles": "C=C(C)C(=O)Oc1ccc(N2C(=O)CCC2=O)cc1", "Potency": "active: 22.4 µM"}, {"smiles": "Cc1ccc(C2=NN(S(C)(=O)=O)C(c3ccc4nccnc4c3)C2)cc1", "note": "(centres undefined)", "Potency": "inconclusive: 17.8 µM [activator, single point]"}, {"smiles": "CCc1ccc(-n2nc(C)c3c(C)cc(=O)n(CC(=O)NCc4ccc(C)cc4)c32)cc1", "Potency": "inactive"}, {"smiles": "O=C(N/N=C/c1ccco1)c1cc(-c2ccc3ccccc3c2)n[nH]1", "Potency": "inconclusive: 17.8 µM [activator, single point]"}, {"smiles": "CCOC(=O)c1sc2nc(C)nc(Nc3ccc(OC)cc3)c2c1C", "Potency": "inconclusive: 14.1 µM [activator, single point]"}, {"smiles": "O=C(CSc1nc2ccccc2c(=O)n1CCCO)N1CCc2ccccc21", "Potency": "inconclusive: 22.4 µM [activator, single point]"}, {"smiles": "COc1cc(C(=O)NNC(=S)NC(=O)c2ccc(F)cc2)cc(OC)c1OC", "Potency": "inconclusive: 15.8 µM [activator, single point]"}, {"smiles": "CCOc1ccc(CC(=O)Nc2c(C(=O)c3ccc(F)cc3)oc3ccc(Cl)cc23)cc1OCC", "Potency": "inconclusive: 4.47 µM [activator, single point]"}, {"smiles": "O=C(c1cccc(S(=O)(=O)N2CCc3ccccc3C2)c1)N1CCN(c2ccc(O)cc2)CC1", "Potency": "inactive"}, {"smiles": "COc1ccc(C2C=C(c3ccccc3)Nc3nc(NC(=O)/C=C/c4ccccc4OC)nn32)cc1", "note": "(centres undefined)", "Potency": "inactive"}, {"smiles": "O=C(CSc1ncn(-c2ccccc2)n1)c1cccs1", "Potency": "inconclusive: 14.1 µM [activator, single point]"}, {"smiles": "O=C(Nc1nc2ccccc2s1)c1ccc(Cl)s1", "Potency": "inactive"}, {"smiles": "COc1ccc(Cn2c(CCC(=O)Nc3ccc(OC)c(Cl)c3)nc3cccnc32)cc1", "Potency": "inconclusive: 31.6 µM [activator, single point]"}, {"smiles": "CC[n+]1c(C=C2C=C(C)OC(C)=C2)sc2ccccc21", "Potency": "active: 7.94 µM"}, {"smiles": "CN(C)C(=S)Nc1nc2ccccc2s1", "Potency": "inconclusive: 12.6 µM [activator, partial curve]"}, {"smiles": "Cc1ccccc1C(=O)Nc1cccc(C(=O)N/N=C/c2cc(Cl)cc([N+](=O)[O-])c2O)c1", "Potency": "inactive"}, {"smiles": "O=C(Nc1ccc(Br)cc1F)c1cc2nc(-c3ccco3)cc(C(F)(F)Cl)n2n1", "Potency": "inconclusive: 6.31 µM [activator, single point]"}, {"smiles": "COc1ccc2nc(CC(C)(C)CC(=O)O)c[n+]([O-])c2c1", "Potency": "inactive"}, {"smiles": "CSc1ccccc1C(=O)C1CCCN(C(=O)CCN2CCCO2)C1", "note": "(centres undefined)", "Potency": "inactive"}, {"smiles": "COc1ccc(-c2csc(/C(C#N)=C/Nc3ccc4c(c3)OCCO4)n2)cc1", "Potency": "active: 10 µM"}, {"smiles": "Fc1ccccc1C1CC(c2ccco2)=Nc2ccccc2S1", "note": "(centres undefined)", "Potency": "inconclusive: 28.2 µM [activator, single point]"}, {"smiles": "CCc1ccc(C(=O)c2cn(CC(=O)Nc3cc(OC)cc(OC)c3)c3ccc(CC)cc3c2=O)cc1", "Potency": "inconclusive: 0.224 µM [activator, single point]"}, {"smiles": "COc1ccc(N=Cc2c(O)n(-c3ccc(OC)cc3)c(=O)c3ccccc23)cc1", "Potency": "inconclusive: 10 µM [activator, partial curve]"}, {"smiles": "N#Cc1cc(C(=O)c2ccccc2O)cn(-c2nccs2)c1=O", "Potency": "inactive"}, {"smiles": "O/C(=C\\c1nc2ccccc2nc1/C=C(\\O)c1ccccc1)c1ccccc1", "Potency": "inconclusive: 3.55 µM [activator, single point]"}]}]}
